From the RNAGym collection of RNA variant scans (doi:10.7554/elife.90254)
The source gives no read counts; variants with many changes may rest on few reads.

B1: LINE1-mini (parent)
chain: GGCAGAGCUCAACACAGCGUGGCAAAGUGGCUGUGGCUAGACUGCC

Variants of: B1
Assay: self-cleavage, relative activity (ratio to wild type); higher = more cleavage; in vitro, sequencing; the parent is a self-cleaving ribozyme

| Variant | self-cleavage |
| --- | --- |
| C8G C13A G30U G33C | 0.05 |
| C10U A14C G21A | 0.04 |
| G5C U32G U34A G35C | 0.04 |
| U9C A25U U28G G40U | 0.04 |
| G5A C13A G21C | 0.03 |
| U34C C37G A41C | 0.01 |
| A11U C13U C37U A39G G44A | 0.02 |
| C10G C13U G17A A25G C46U | 0.04 |
| G1A G5A U9C C10A | 0.66 |
| C13G C23G U28A | 0.03 |
| C18A C31G A41U G44A | 0 |
| G2U C8U G22C U32G A39U | 0.03 |
| C3G G5A U9G C15G A24U U43A | 0.08 |
| U20G G29C C42U | 0.14 |
| G2U G17U G19A C42G | 0.04 |
| C8A G29A U34A C46U | 0.1 |
| C10A C31U U34A G44U C46U | 0 |
| C3U C8U G33U G40U C45U | 0.1 |
| A11G C37G C45U | 0 |
| A6C G7C C18A | 0.01 |
| A24C A41G C46A | 0.03 |

| Variant | self-cleavage |
| --- | --- |
| G2C C8A C42A | 0.29 |
| C10A C15G G21C | 0.04 |
| A6G A11U C23G | 0.03 |
| C8G G17U C37U | 0.16 |
| G27C U43G C45G | 0.3 |
| C37U U38A U43A G44A | 0.03 |
| C8A G17C A26U G30U | 0.55 |
| C3U G5A C10A U38G A39C | 0.03 |
| U9A C37U C42A | 0.18 |
| C3A U9A G22C G27A G35U G44U | 0.08 |
| G5A A12U G21A A26G G33U | 0 |
| A12C G17U C42A C45U | 0.05 |
| G1A A12G A16U | 0.05 |
| A6U A16U C18G G19A C23A A39C G44A | 0.04 |
| C8G U9C A25C C37A C45U | 0.07 |
| C3G A6G G19A U34A | 0 |
| C15U C37U U38A A39G | 0.03 |
| G1C A6C C23U C37G | 0.01 |
| A4G A14C G33U | 0.28 |
| C8G C23G G36A U38G | 0.16 |
| C13G G27U U34G | 0.02 |

| Variant | self-cleavage |
| --- | --- |
| C10U A12G C13U G35U | 0.03 |
| G21C A24U U32G U38C A41C U43G | 0.01 |
| A4C A6U G35U | 0.03 |
| G5A C18A G21U | 0.02 |
| C13U U20A G22U C23A C31G G36C | 0.01 |
| G1C A4C C13U A25U G40U | 0.02 |
| A16U C31A A39G U43A | 0.02 |
| A12C G33A C42U | 0.08 |
| G5U C8A C15A C45A | 0.4 |
| G29A G33U G40U C45G | 0.01 |
| G19U G22A A41C | 0.05 |
| C13G G19U G21U | 0.03 |
| G27C G30A G44A C45G | 0.09 |
| C13G C18A G44A | 0.03 |
| C8U G22C G30U G44C | 0.05 |
| G7C C8G G35U C42U | 0.1 |
| A4G G5C U32C G36C | 0.05 |
| G5A A16G G33A | 0.02 |
| A25G G30U C31U G40C | 0 |
| G7U C10U A11U C23A U34C C37A | 0.01 |
| U9C C10U G27A C31G | 0 |

| Variant | self-cleavage |
| --- | --- |
| A16U G17U G19A U38A C45U | 0.07 |
| C8U C10U G19U G40U C42G | 0.05 |
| G2U A14G G21U G22C G35A | 0.01 |
| C8A U9C A41C | 0.09 |
| A12U A24G C31A | 0 |
| A11U C13G G22U C31A C45A C46A | 0 |
| U9A C15U G22U C23U G35C C45A | 0.1 |
| A6U U43G C45A | 0.06 |
| C18A G21C G35A | 0.02 |
| G5C U9G G21C | 0.03 |
| G22C A24U G36U | 0.07 |
| A14U C18G G30C C31A | 0.32 |
| G22A A41U C46A | 0.52 |
| A16G G17U G19A G40U C45A | 0.45 |
| G2C G21A A25U G27U | 0.29 |
| U9C C10G G29U | 0 |
| G1C G30C C46A | 0.02 |
| G1A G7A G29U C46G | 0.19 |
| C3A U9A C18U G40A A41G C46G | 0.09 |
| G19U A25C A26U | 2.3 |
| C8A G22C G29U | 0.11 |
